Test results: the supplement of paper PMC10600219
Where a name gives a salt, the structure may show the parent alone. In all, about 2,800 compounds were measured (“cell viability relative to vehicle”: median about 0.98, lowest 2% from about 0.45 on). The list shows a part of the results.

system: NCI-H2228 alectinib-DTP; assay: cell viability relative to vehicle (fraction of vehicle); NCI-H2228 is an ALK-positive lung cancer line and DTP means drug-tolerant persister; higher = less growth inhibition; settings: 100 nM; treatment time 6 days
In short: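 Values give cell viability as a fraction of vehicle-treated cells. Parental and drug-tolerant persister NCI-H2228 cells (persisters made with 1000 nM of a targeted drug for 13 days) were exposed in 384-well plates to the 3114-agent TargetMol anti-cancer compound library at 100 nM, with DMSO as vehicle. ATP was then read after 6 days by the CellTiter-Glo 3D Cell Viability Assay.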

SMILES | cell viability
Cn1ncnc1[C@H]1c2n[nH]c(=O)c3cc(F)cc(c23)N[C@@H]1c1ccc(F)cc1 [Talazoparib] | 0.928
CN(C)S(=O)(=O)c1ccc2c(c1)/C(=C/c1cc3c([nH]1)CCCC3)C(=O)N2 | 0.969
Clc1cccc(Cl)c1NC1=NCCN1 [Clonidine hydrochloride] | 1.06
C[C@]12C=CC(=O)N[C@@H]1CC[C@@H]1[C@@H]2CC[C@]2(C)[C@@H](C(=O)Nc3cc(C(F)(F)F)ccc3C(F)(F)F)CC[C@@H]12 [Dutasteride] | 0.975
CO[C@H]1/C=C/O[C@@]2(C)Oc3c(C)c(O)c4c(O)c(c5c(nc6cc(C)ccn65)c4c3C2=O)NC(=O)/C(C)=C\C=C\[C@H](C)[C@H](O)[C@@H](C)[C@@H](O)[C@@H](C)[C@H](OC(C)=O)[C@@H]1C [Rifaximin] | 0.95
CCCCCOc1ccccc1/C(=C\SC)n1ccnc1 [Neticonazole Hydrochloride] | 1.01
CCN(CC)c1ccc(/C=N/NC(=O)c2ccc(O)cc2)cc1 | 0.973
Nc1ccn([C@H]2C[C@H](O)[C@@H](CO)O2)c(=O)n1 [2'-Deoxycytidine monohydrate] | 1.03
COc1cc(C(C)C)c(Oc2cnc(N)nc2N)cc1I | 1.06
O=C(O)CCc1ccc(NCc2cccc(Oc3ccccc3)c2)cc1 | 0.92
Cc1[nH]cnc1CN1CCc2c(c3ccccc3n2C)C1=O [Alosetron hydrochloride] | 0.935
O=S(=O)(c1cccc2c(O)nccc12)N1CCCNCC1 [Hydroxyfasudil Hydrochloride] | 1.1
Cc1cc(C)c(S(=O)(=O)N(CCc2cccc(Br)c2)Cc2ccc(-c3cccc(S(C)(=O)=O)c3)cc2)c(C)c1 | 1.12
C[C@@H]1O[C@@H](O[C@@H]2[C@@H](O)[C@H](OCCc3ccc(O)c(O)c3)O[C@H](COC(=O)/C=C/c3ccc(O)c(O)c3)[C@H]2O)[C@H](O)[C@H](O)[C@H]1O [Isoacteoside] | 1.04
Clc1ccc2c(c1)CCc1cccnc1C2=C1CCNCC1 [Desloratadine] | 0.967
O=C1NCC2(CCN(CCc3ccccc3)CC2)O1 [Fenspiride hydrochloride] | 1.23
CCS(=O)(=O)N1CC(CC#N)(n2cc(-c3ncnc4[nH]ccc34)cn2)C1 [Baricitinib Phosphate] | 1.1
CCS(=O)(=O)N1CC(CC#N)(n2cc(-c3ncnc4[nH]ccc34)cn2)C1 [Baricitinib] | 0.992
CN(C)CCOC(c1ccccc1)c1ccccc1.Cn1c(=O)c2[nH]c(Cl)nc2n(C)c1=O [Dimenhydrinate] | 1.05
Nc1nccc(Oc2ccc(NC(=O)c3c[nH]cc(-c4ccc(F)cc4)c3=O)cc2F)c1Cl | 1.02
COc1cccc2c(NCc3ccccc3)nc(-n3c(N)nc4ccccc43)nc12 | 1.03
Nc1nc(O)c2[nH]nnc2n1 [8-Azaguanine] | 0.78
O=C(c1c(F)ccc(NS(=O)(=O)N2CC[C@@H](F)C2)c1F)c1c[nH]c2ncc(-c3cnc(C4CC4)nc3)cc12 | 1.02
CC(=O)[C@@]1(O)CC[C@H]2[C@@H]3CCC4=CC(=O)CC[C@]4(C)[C@H]3CC[C@@]21C [Hydroxyprogesterone] | 0.937
OC(c1cc(-c2ccc(Cl)cc2)nc2ccccc12)C1CCCCN1 (configuration not stated) [Vacquinol-1] | 0.99
NC(=O)Nc1cc(-c2cccc(F)c2)sc1C(=O)N[C@H]1CCCNC1 | 0.741

SMILES | cell viability
C[C@H]1[C@H](C)CC[C@]2(C(=O)O)CC[C@]3(C)C(=CC[C@@H]4[C@@]5(C)CC[C@H](O)C(C)(C)[C@@H]5CC[C@]43C)[C@H]12 [Ursolic acid] | 1.11
CN(C[C@@H]1COCCO1)S(=O)(=O)Nc1ccc2ccc3ncc(-c4cnn(C)c4)cc3c(=O)c2c1 | 0.914
NNC(=O)c1ccncc1.Nc1ccc(C(=O)O)c(O)c1 [Pasiniazid] | 1.08
COc1cc(O)c(C(=O)/C=C/c2ccccc2)c(OC)c1 [Flavokawain B] | 1.13
CCCc1nn(C)c2c(=O)[nH]c(-c3cc(S(=O)(=O)N4CCN(C)CC4)ccc3OCC)nc12 [Sildenafil citrate] | 0.994
CC1CCC(C(C)C)C(O)C1 (racemic) [DL-Menthol] | 1.17
COc1cc(NC(=O)Nc2cccc(CNC(=O)O[C@H]3CCOC3)c2)ccc1-c1cnco1 [Merimepodib] | 1.09
N#CC[C@H](C1CCCC1)n1cc(-c2ncnc3[nH]ccc23)cn1 [Ruxolitinib] | 0.891
CCN1CCN(Cc2ccc(NC(=O)c3ccc(C)c(NC(=O)c4cncc(-c5cccs5)c4)c3)cc2C(F)(F)F)CC1 | 0.789
Cn1cc(C2=C(c3cccc(N)c3)C(=O)NC2=O)c2ccccc21 | 0.932
CCC(C)(C)C(=O)O[C@H]1C[C@@H](C)C=C2C=C[C@H](C)[C@H](CC[C@@H]3C[C@@H](O)CC(=O)O3)[C@H]21 [Simvastatin] | 1.21
O=C(CSc1nc2c(c(=O)n1-c1ccccc1)SCC2)Nc1ccc(-c2ccccc2)cn1 | 0.887
CN1CCN(c2ccc3[nH]c(-c4ccc5[nH]c(-c6ccc(O)cc6)nc5c4)nc3c2)CC1 | 1.19
COc1cc2nc(N3CCCN(C)CC3)nc(NC3CCN(Cc4ccccc4)CC3)c2cc1OC | 1.08
O=S(=O)(c1cccc2cnccc12)N1CCCNCC1 [Fasudil hydrochloride] | 0.936
O=C(c1ccc(F)c(F)c1Nc1ccc(I)cc1F)N1CC(O)([C@@H]2CCCCN2)C1 [Cobimetinib] | 0.865
N[C@@H](CCCCNC(=O)C(F)(F)F)C(=O)O [N-6-Trifluoroacetyl-L-lysine] | 0.966
CCc1nn(CCCN2CCN(c3cccc(Cl)c3)CC2)c(=O)n1CCOc1ccccc1 [Nefazodone hydrochloride] | 0.89
CC(C)c1cnn2c(NCc3ccccc3)cc(NCCCCCCN)nc12 | 0.781
C/C1=C/CC[C@H](C)C(=O)C[C@@H](C(C)C)C(=O)C1 [Curdione] | 1.01
NC1CCN(c2c(F)cc3c(=O)c(C(=O)O)cn(C4CC4)c3c2Cl)C1 (configuration not stated) [Clinafloxacin] | 0.957
O=C1CSc2ccccc2N1Cc1cccc(C(F)(F)F)c1 | 0.951
C[C@H](Nc1ncnc2nc[nH]c12)c1cc2cccc(Cl)c2c(=O)n1-c1ccccc1 [Duvelisib] | 0.939
CC(NCCc1ccc(O)cc1)C(O)c1ccc(O)cc1 (configuration not stated) [Ritodrine hydrochloride] | 0.904
Cc1c(C(=O)N2CCOc3ccc(-c4ccc(N)nc4)cc3C2)ccc(S(C)(=O)=O)c1F | 0.928
O=C(Nc1ccc(CN2CCOCC2)cc1)c1ccc(-c2cccc(Cl)c2)o1 | 0.816

SMILES | cell viability
CN1CCC(=C2c3ccccc3CCn3c(C=O)cnc32)CC1 [Alcaftadine] | 0.988
Cc1cc(F)c(C(=O)Nc2cccc(-c3nncn3C(C)C)n2)cc1-n1cnc(C2CC2)c1 [Selonsertib] | 0.918
CCC(=O)O[C@]1(C(=O)SCF)[C@H](C)C[C@H]2[C@@H]3C[C@H](F)C4=CC(=O)C=C[C@]4(C)[C@@]3(F)[C@@H](O)C[C@@]21C [Fluticasone propionate] | 0.772
Cc1cn(-c2cc(NC(=O)c3ccc(C)c(Nc4nccc(-c5cnccn5)n4)c3)cc(C(F)(F)F)c2)cn1 [Radotinib] | 0.964
CC(C)[C@H](O)C(=O)N[C@@H](C)C(=O)N[C@@H]1C(=O)N(C)CCc2ccccc21 [Semagacestat] | 1.01
NCCCS(=O)(=O)O [Homotaurine] | 0.937
O=C(O)/C(Cc1ccccc1[N+](=O)[O-])=N/Nc1nc(-c2ccc(Cl)c(Cl)c2)cs1 | 0.872
COc1cc(CCc2cc(NC(=O)c3ccc(N4CC(C)NC(C)C4)cc3)n[nH]2)cc(OC)c1 (configuration not stated) | 0.851
CC(C)n1c(=O)n(C)c2cnc3cc(F)c(-c4ccc(OCCCN5CCCCC5)nc4)cc3c21 | 0.883
Nc1ccc(C(=O)O)c(O)c1 [Sodium 4-aminosalicylate dihydrate] | 1.2
Nc1ccc(C(=O)O)c(O)c1 [Aminopar] | 0.995
CNCc1ccc(C)c(NC(=O)c2ccc(Nc3nc(-c4ccccc4)c4ccccc4n3)cc2)c1 | 0.99
CCCCN1CCCC[C@H]1C(=O)Nc1c(C)cccc1C [Levobupivacaine] | 0.862
c1ccc(CNc2nc(N3CCOc4ccccc43)nc3c2CCCC3)cc1 [ML241 hydrochloride] | 1
CCCCC/C=C\C/C=C\C/C=C\CCCCC(=O)O [gamma-Linolenic acid] | 0.958
Clc1ccc(C(c2ccccc2Cl)C(Cl)Cl)cc1 (configuration not stated) [Mitotan] | 0.957
O=C(O)Cn1nnc(-c2cc(N3CCC(Oc4cc(F)ccc4Br)CC3)no2)n1 | 0.993
O=C(O)c1ccccc1Nc1cccc(C(F)(F)F)c1 [Flufenamic acid] | 0.845
c1ccc(-c2nn3c(c2-c2ccnc4cc(OCCN5CCOCC5)ccc24)CCC3)nc1 | 0.978
CC(C)NNC(=O)c1ccncc1 [Iproniazid Phosphate] | 0.934
O=C1S/C(=C\c2ccc(OCc3cccc(B(O)O)c3)cc2)C(=O)N1Cc1ccc(F)cc1 | 0.815
Cc1ccc(Sc2cncc3sc(C(N)=O)cc23)cc1 | 1.04
CSCC[C@H](NC(=O)[C@H](Cc1c[nH]c2ccccc12)NC(=O)CCNC(=O)OC(C)(C)C)C(=O)N[C@@H](CC(=O)O)C(=O)N[C@@H](Cc1ccccc1)C(N)=O [Pentagastrin] | 0.855
Cc1c(C(=O)Nc2ccc(N3C[C@@H](C)O[C@@H](C)C3)nc2)cccc1-c1ccc(OC(F)(F)F)cc1 | 0.993
O=C(NCCN1CCOCC1)Nc1ccc(C(=O)/C=C/c2cccc(N3CCOCC3)n2)cc1 | 1.06
